PMC4242493
The list shows a part of the results. The list includes weakly bound sequences.

The sequences below were run against MaxL homodimer (UniProt P61244) (assay: universal protein-binding microarray (PBM)). Conditions: PBS-based mixture, 10 nM His-tagged protein dimer, 2% milk, 200 ng/uL BSA, 50 ng/uL salmon testes DNA, 0.02% TX-100; detection with Alexa 488 anti-His …; high values mean tight binding; most listed sequences are background and not binding sites; double strand, one strand shown.
Chain of UniProt P61244 (P61244 whole entry): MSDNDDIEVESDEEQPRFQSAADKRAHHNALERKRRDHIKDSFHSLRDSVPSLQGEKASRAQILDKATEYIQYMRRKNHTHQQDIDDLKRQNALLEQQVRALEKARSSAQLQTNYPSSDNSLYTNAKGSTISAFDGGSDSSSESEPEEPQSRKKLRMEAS

Row | Sequence | binding signal (normalized occupancy)
1 | ATAAAATC | 0.077
2 | GTAATGGA | 0.0779
3 | GAATCGCA | 0.0692
4 | CACCGAAG | 0.0697
5 | CAATGCTA | 0.074
6 | ATGGGGGG | 0.086
7 | AAGTGTAC | 0.0817
8 | AGCTCGAC | 0.0648
9 | CTCCTAAG | 0.0719
10 | ACCTACGA | 0.0696
11 | ATTGACAA | 0.0724
12 | CAAGTGAG | 0.0728
13 | GCTTGGCC | 0.0711
14 | CGCGGACG | 0.0684
15 | ACGAGGGG | 0.0927
16 | AGAAAAAA | 0.0669
17 | GTGTACCA | 0.0797
18 | AAAGCTAA | 0.0691
19 | TAGCCTAA | 0.073
20 | CACGGCCA | 0.0765
21 | CACAGATA | 0.076
22 | ACAGGATA | 0.0758

Row | Sequence | binding signal (normalized occupancy)
23 | GGAACTGA | 0.0733
24 | GACTGCGA | 0.0684
25 | TTATCGAA | 0.0724
26 | CGGGCCAC | 0.0694
27 | ATCTCCTG | 0.0781
28 | ATGTTAGC | 0.0865
29 | GTAACTAA | 0.0701
30 | GAACTGGC | 0.0668
31 | ACGTCGGA | 0.0723
32 | ATTATTTA | 0.073
33 | TATCCACA | 0.0827
34 | GAAAACAC | 0.077
35 | GATAGCGC | 0.0768
36 | CTCTAGTC | 0.0712
37 | CATCTTTA | 0.0754
38 | ATTGATCC | 0.0795
39 | GCCGCTAC | 0.0682
40 | AAGGCAGT | 0.0705
41 | ATACAAGG | 0.0755
42 | CTACATGA | 0.0856
43 | AGGCACAT | 0.098
44 | CCGAGCCC | 0.0666

Row | Sequence | binding signal (normalized occupancy)
45 | AGTGTGAT | 0.0839
46 | AAACAGAC | 0.0744
47 | CGACCTGC | 0.0697
48 | ATGCTCCA | 0.0829
49 | AGGGATCC | 0.067
50 | ATTTGTGC | 0.0777
51 | ATACATGC | 0.104
52 | AGCAACAC | 0.0752
53 | CCCGACCG | 0.0696
54 | ACACGTCA | 0.0865
55 | CAACTGCC | 0.067
56 | AACCGAAC | 0.0694
57 | GTACGCCA | 0.077
58 | ACGGTGCG | 0.0738
59 | GACGGACA | 0.0762
60 | CCCGCGAA | 0.0716
61 | AGGCAAGC | 0.0713
62 | CCAGCTGG | 0.0717
63 | ATTCTAAA | 0.0725
64 | AGGTAAGG | 0.0722
65 | AGTCGCAC | 0.0809
66 | GATTATCA | 0.0803

Row | Sequence | binding signal (normalized occupancy)
67 | CGGGCTTC | 0.064
68 | CGGGGAAC | 0.0801
69 | ATTCCCGA | 0.0756
70 | GGGCCCGA | 0.0708
71 | ATAAATTA | 0.0802
72 | GACGCCTC | 0.0726
73 | GACACACC | 0.0876
74 | AGCAGAAG | 0.0755
75 | AGCCATGC | 0.0996
76 | TGCCAGCA | 0.0771
77 | GCTTTACC | 0.0768
78 | CGGCCGTA | 0.0679
79 | ACAGAGTG | 0.0709
80 | CATCATGG | 0.0895
81 | TCAAAGAA | 0.0762
82 | GGTCTTAC | 0.0751
83 | AAACACGA | 0.0848
84 | CAGCTCGC | 0.0692
85 | TACTCGCA | 0.0752
86 | AGCATCAA | 0.0728
